These results are taken from PMC11272940, “UNC-45 assisted myosin folding depends on a conserved FX3HY motif implicated in Freeman Sheldon Syndrome” (Nature Communications, 2024).

Test [1] addresses T1, UNC-45(K82E):myo complex (C. elegans) (UniProt G5EG62+P02566). The test is described as follows: pull-down; recombinant HSP90 with the purified UNC-45(K82E):myo^F complex; both purified.
Test [2] deals with T1, UNC-45(K82E):myo complex (C. elegans). The test is described as follows: pull-down; recombinant HSP90 with the purified UNC-45(K82E):myo^UF complex; both purified.
The target of test [3] is T2, UNC-45:myosin (in vitro mixed, wildtype UNC-45 and MHC-B motor domain) (C. elegans) (UniProt G5EG62+P02566). The test is described as follows: pull-down; UNC-45, myosin and UFD-2 mixed in stoichiometric amounts, incubated at 4 °C (myosin folded); both purified.
Test [4] addresses T2, UNC-45:myosin (in vitro mixed, wildtype UNC-45 and MHC-B motor domain) (C. elegans). The test is described as follows: pull-down; UNC-45, myosin and UFD-2 mixed in stoichiometric amounts, incubated at 27 °C (myosin unfolded); both purified.
Test [5] addresses T3, C. elegans myosin motor domain MHC-B (1-790), wildtype (C. elegans) (UniProt P02566).
T3 sequence: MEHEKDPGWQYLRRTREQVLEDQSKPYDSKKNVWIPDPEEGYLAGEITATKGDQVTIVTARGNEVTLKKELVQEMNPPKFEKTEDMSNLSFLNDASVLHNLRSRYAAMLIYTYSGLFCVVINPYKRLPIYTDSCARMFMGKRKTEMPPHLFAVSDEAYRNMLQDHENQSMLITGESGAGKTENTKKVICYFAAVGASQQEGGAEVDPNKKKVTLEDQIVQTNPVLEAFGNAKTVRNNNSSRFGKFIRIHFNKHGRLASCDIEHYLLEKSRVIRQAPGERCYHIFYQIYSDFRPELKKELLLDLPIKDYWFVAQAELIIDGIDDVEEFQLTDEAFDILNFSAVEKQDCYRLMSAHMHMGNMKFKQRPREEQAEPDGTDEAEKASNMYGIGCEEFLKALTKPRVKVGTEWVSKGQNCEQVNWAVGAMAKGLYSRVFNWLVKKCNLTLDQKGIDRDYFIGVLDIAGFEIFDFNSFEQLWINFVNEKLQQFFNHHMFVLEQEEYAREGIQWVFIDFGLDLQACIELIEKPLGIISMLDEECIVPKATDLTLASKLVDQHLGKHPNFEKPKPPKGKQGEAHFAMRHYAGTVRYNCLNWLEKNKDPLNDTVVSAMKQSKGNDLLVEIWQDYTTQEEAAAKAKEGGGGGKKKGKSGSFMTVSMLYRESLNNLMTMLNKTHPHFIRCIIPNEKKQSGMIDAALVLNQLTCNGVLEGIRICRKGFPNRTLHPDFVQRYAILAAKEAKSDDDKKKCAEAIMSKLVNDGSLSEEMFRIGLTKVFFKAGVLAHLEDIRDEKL
The test is described as follows: cross-linking; XL-MS of the in vitro reconstituted UFD-2:UNC-45:myo^UF complex; 0.25 mM DSS, 20 mM HEPES pH 8.0, 150 mM NaCl, 25 °C, 30 min; both purified.

Test [6] addresses T3, C. elegans myosin motor domain MHC-B (1-790), wildtype (C. elegans). The experiment in a line: tandem affinity co-purification + SEC; co-expressed in insect cells; HisTrap (myosin) then Strep-Tactin (UNC-45), then Superdex 200 in 20 mM HEPES pH 8.0, 150 mM NaCl.
The target of test [7] is T4, 547–588 myosin peptide (MHC-B) (C. elegans, UniProt P02566 547-588).
T4 construct: also called native peptide; identified myosin ligand; source: synthetic peptide
T4 peptide (looked up): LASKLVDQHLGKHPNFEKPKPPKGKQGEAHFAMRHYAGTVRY
The experiment in a line: thermal shift assay; 1 μM UNC-45 or UNC-45 ΔUCS, 2 mM peptide, SYPRO Orange, 20 mM HEPES pH 8.0, 150 mM NaCl; triplicates; both purified.

Results are given in words; binding and its absence hold for the method and conditions named. Some entries that bind do so weakly or less than the wild type.

On to HSP90 (from UniProt Q18688 1-702), for which the binding result in test [1] and in test [2] was “binds” each time.

B1: UFD-2 ubiquitin ligase (C. elegans) (enzyme, UniProt Q09349 1-984)
chain: MIEDEKAGLQPMDISDASVFFFQADVESKDFLTSLFDCEGKSDDRMLRYADAIIDVQNLNFDVSPQCLQSNIAEIITKFVLLSQDGSRRGLSRSFNFIDPDIIAGCREEDAIEFLLINFVRCHHELGKSGTSNCYKKTLESTRKAVFSVFVMIQRGYLESQLRSQHASLVFTKRLLEDTVSNVFLRTLVEYLASTDECDEDAITETFNPIFGILRSGIICQRFEDNKDEIVRQILRVMNLLLSIRLPSNGPRPLSNLLVNREDFLPTPSEKIQGREFGLMSFLGPFFSYGLESSARRPNHRVFVDCEEDARKYDGSVNTEQKLYFQRMDPIRTMLHQLMLPLASDQGSRNKTLRWIATIISTNDIRTRSHYDPSDVLCDHYMTNFLSVMYMFSEKIDLSKIIVDYPFLPSSLINISKETRLKMDESGAVAFASQFADRPDEYHFSTVCFFLTIAAQRLVIPPLMNQISEYSRHLKELKHKINALKEKLNTVSGFERAEVEKKLNYETEHWKLMSRHLLCVKTQAQDPALMASSMDFVDKQMKFILNLLCDNLDLLGDDSQLPTEVSQMFCALPEYFLEDALDFYIFAISNGMKLLMERNADWISRLTVLFTQYHYIKSPFLVSKLVRVLSSIQPPLWFNVVRLRMAQENLLMCMIKFYSDFEDNGDFYEKFNVRGNIQYMLEKMEEDMFYKGKFMDMARECGAEFIRFVNMVINDATWCIDESLSGLKSIHDVEKKMANKVEWDNTDQEIRNQDLGVYEEAKRKVKGWLGTAKSNLKLLLSITVNSPEPFRTPVLGERLAAMLNHNLSQLIGSKASELKVKDPRSYGWEPREFVSLLISIYLKLNMPAFVKYIAYDERTYSPEFFHNAIECMRKNSIVGFSQLESFEHLAEDVKKEYEAKAELEEEYDDVPEEFKDPIMDAIMVDPVKLPSGHVMDRAVIERHLLSTPNNPFNRAPLSHNELSPDSELKAKIQEWICQKRNSKK
Consider B1, for which the binding entry is “no binding (condition: incubated at 4 °C (myosin folded))” in test [3], “binds” in test [4] and “binds” in test [5].

B2: C. elegans UNC-45 K82E mutant (co-expressed with the MHC-B motor domain in insect cells) (protein, UniProt G5EG62 1-961)
chain: MVARVQTAEEIRDEGNAAVKDQDYIKADELYTEALQLTTDEDKALRPVLYRNRAMARLKRDDFEGAQSDCTKALEFDGADVEALFRRSLAREQLGNVGPAFQDAKEALRLSPNDKGIVEVLQRLVKANNDKIKQTTSLANKVTDMEKLAFRGEAKDTEQKMTALNNLLVLCRESESGATGVWNQGALVPFVLNLINDASENEEVTVTAIRILDETIKNSVRCMKFLAMHDPDGPKSVRFVCRLMCKKSTKDFVDATGILVQRVFNAMAKMDRQKEMKPDPEVAEANKIWIIRVLLELQEMLQDPKVGAVQRETCIDLFLKNLMHMDGGIPRGWSWKFVEERGLLALLDVASQIPELCEYPVSAETRQHVAICLQRLEEDMVFDTKRTIFKEKVDMFFNALISRCTNDDEGHKYRIKLSCFLITMLQGPVDIGINLITNDQLTPIMLEMAASQDHLMQGIAAELIVATVSKHERAINMLKVGIPVLRALYDSEDPTVKVRALVGLCKIGAAGGDDISKATMKEEAVISLAKTCKKFLLETEKYSVDIRRYACEGLSYLSLDADVKEWIVDDSLLLKALVLLAKKAGALCVYTLATIYANLSNAFEKPKVDEEMVKLAQFAKHHVPETHPKDTEEYVEKRVRALVEEGAVPACVAVSKTESKNALELIARSLLAFAEYEDLRGRIIAEGGTVLCLRLTKEASGEGKIKAGHAIAKLGAKADPMISFPGQRAYEVVKPLCDLLHPDVEGKANYDSLLTLTNLASVSDSIRGRILKEKAIPKIEEFWFMTDHEHLRAAAAELLLNLLFFEKFYEETVAPGTDRLKLWVLYSAEVEEERLSRASAAGFAILTEDENACARIMDEIKSWPEVFKDIAMHEDAETQRRGLMGIANIMHSSNKLCSEIVSSEVFRVLVAVTKLGTINQERAGSTEQAKRGLEAAEKFGLIKATDREIYERENQMSTIQE
B2: in test [6], the binding result is given as “binds”.

B3: UNC-45 ΔUCS (domain or fragment, UniProt G5EG62)
chain: MVARVQTAEEIRDEGNAAVKDQDYIKADELYTEALQLTTDEDKALRPVLYRNRAMARLKRDDFEGAQSDCTKALEFDGADVKALFRRSLAREQLGNVGPAFQDAKEALRLSPNDKGIVEVLQRLVKANNDKIKQTTSLANKVTDMEKLAFRGEAKDTEQKMTALNNLLVLCRESESGATGVWNQGALVPFVLNLINDASENEEVTVTAIRILDETIKNSVRCMKFLAMHDPDGPKSVRFVCRLMCKKSTKDFVDATGILVQRVFNAMAKMDRQKEMKPDPEVAEANKIWIIRVLLELQEMLQDPKVGAVQRETCIDLFLKNLMHMDGGIPRGWSWKFVEERGLLALLDVASQIPELCEYPVSAETRQHVAICLQRLEEDMVFDTKRTIFKEKVDMFFNALISRCTNDDEGHKYRIKLSCFLITMLQGPVDIGINLITNDQLTPIMLEMAASQDHLMQGIAAELIVATVSKHERAINMLKVGIPVLRALYDSEDPTVKVRALVGLCKIGAAGGDDISKATMKLGTINQERAGSTEQAKRGLEAAEKFGLIKATDREIYERENQMSTIQE
Regarding B3, the binding result in test [7] is reported as “no binding (tested: 1 μM protein, 2 mM peptide)”.
